The campaign covered roughly 310,000 compounds. About 14,000 (4.5%) showed an effect of 50% or more. Effects have a minus sign here. Some of the results follow.
biological target: human ether-à-go-go-related gene (hERG) potassium channel (human, UniProt Q12809); experiment: primary screen, population patch clamp on CHO cells stably expressing hERG
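Further: peak tail current of the secondary pulse compared with the same well before compound.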

human ether-à-go-go-related gene (hERG) potassium channel, sequence (Q12809 whole entry, looked up): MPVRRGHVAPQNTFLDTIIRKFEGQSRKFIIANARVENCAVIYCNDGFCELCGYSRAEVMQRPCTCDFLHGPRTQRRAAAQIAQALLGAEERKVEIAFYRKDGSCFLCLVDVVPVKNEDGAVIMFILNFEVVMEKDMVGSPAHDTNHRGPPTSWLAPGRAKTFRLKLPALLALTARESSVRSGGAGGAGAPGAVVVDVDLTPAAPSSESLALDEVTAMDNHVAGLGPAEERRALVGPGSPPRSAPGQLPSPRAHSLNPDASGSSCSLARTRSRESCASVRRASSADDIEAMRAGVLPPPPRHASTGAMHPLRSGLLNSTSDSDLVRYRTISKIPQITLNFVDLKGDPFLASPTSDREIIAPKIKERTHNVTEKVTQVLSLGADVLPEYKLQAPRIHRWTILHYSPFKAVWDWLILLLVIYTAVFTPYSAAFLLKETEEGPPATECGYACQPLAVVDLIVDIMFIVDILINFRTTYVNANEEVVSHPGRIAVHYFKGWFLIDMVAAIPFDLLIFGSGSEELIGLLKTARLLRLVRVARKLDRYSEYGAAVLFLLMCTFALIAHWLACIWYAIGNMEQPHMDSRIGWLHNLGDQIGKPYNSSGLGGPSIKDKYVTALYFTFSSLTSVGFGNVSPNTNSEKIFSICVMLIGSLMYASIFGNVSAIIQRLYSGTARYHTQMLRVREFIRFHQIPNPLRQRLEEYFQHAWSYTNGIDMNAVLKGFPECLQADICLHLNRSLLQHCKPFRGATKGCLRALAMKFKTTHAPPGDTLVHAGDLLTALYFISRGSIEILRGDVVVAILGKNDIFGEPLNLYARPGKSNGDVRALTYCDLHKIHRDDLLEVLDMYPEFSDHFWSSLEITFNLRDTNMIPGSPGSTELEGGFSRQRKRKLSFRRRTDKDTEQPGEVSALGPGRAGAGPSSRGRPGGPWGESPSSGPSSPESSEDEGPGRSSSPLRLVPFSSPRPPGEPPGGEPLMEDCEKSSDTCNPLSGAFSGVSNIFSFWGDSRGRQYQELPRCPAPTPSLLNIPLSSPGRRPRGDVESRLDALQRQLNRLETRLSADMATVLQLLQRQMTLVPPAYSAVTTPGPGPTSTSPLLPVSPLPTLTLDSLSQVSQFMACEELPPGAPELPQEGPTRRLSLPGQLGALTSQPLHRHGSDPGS

Compared with `CCS(=O)(=O)N1Cc2ccccc2CC1C(=O)N(C)CC(=O)Nc1cccc(F)c1` (stereo not drawn), `CCS(=O)(=O)N1Cc2ccccc2CC1C(=O)Nc1nc2ccc(F)cc2s1` (stereo not drawn) is higher in “hERG current change (%, negative = inhibition) at 10uM” value: -16.5% for the first, 3.17% for the second.

Compared with `Br.CCn1c(O)c(N=NC2=NC(=O)CS2)c2ccccc21`, `CC1CCc2cccc3c(O)cc(=O)n1c23` (stereo not drawn) is higher in “hERG current change (%, negative = inhibition) at 10uM” value: 2.88% for the first, 5.84% for the second.

Going from `COc1ccccc1-c1noc(CCC(=O)Nc2cc(C(F)(F)F)ccc2Cl)n1` to `O=C(Nc1cc2ccccc2oc1=O)c1ccccc1`, the “hERG current change (%, negative = inhibition) at 10uM” value rises from -3.68% to 22.7%.

First: CCCCS(=O)(=O)N1CCN(S(=O)(=O)c2ccc(Cl)s2)CC1
Second: CCS(=O)(=O)N1CCN(C(=O)c2cccc3ccccc23)CC1
The “hERG current change (%, negative = inhibition) at 10uM” value of the first is lower: -11.6% for the first, 12.8% for the second.

Going from `NC(=O)CSc1nc2sc3c(c2c2ncnn12)CCCC3` to `N#CC1(NC(=O)CSc2nncn2-c2ccccc2F)CCCC1`, the “hERG current change (%, negative = inhibition) at 10uM” value rises from -27.4% to 6.31%.

Compared with `CCOC(=O)C1CSC(CC(=O)Nc2ccc(Cl)cc2)C(=O)N1` (stereo not drawn), `Cc1ccc(/C=C/S(=O)(=O)NCC(=O)OCC(=O)Nc2ccc(C(=O)N(C)C)cc2)cc1` is higher in “hERG current change (%, negative = inhibition) at 10uM” value: -14.9% for the first, 8.71% for the second.

First: Cn1c(=O)c(=O)n(C)c2cc(S(=O)(=O)NCCOc3ccccc3)ccc21
Second: COCCNC(=O)CN(CCc1ccccc1)S(=O)(=O)c1ccc(OC)cc1
The “hERG current change (%, negative = inhibition) at 10uM” value of the first is higher: 5.98% for the first, -22.4% for the second.

First: N#CC1=C(N)Oc2cc(N)ccc2C1c1ccsc1 (stereo not drawn)
Second: Clc1ccc(OCc2nn3c(-c4ccco4)nnc3s2)cc1
The “hERG current change (%, negative = inhibition) at 10uM” value of the first is higher: 9.79% for the first, -44.4% for the second.

Going from `O=C(CCN1C(=O)/C(=C\C=C\c2ccccc2)SC1=S)Nc1ccc(C(=O)O)cc1` to `CN(C)c1ccc(C(=O)Nc2ccc(S(=O)(=O)Nc3nccs3)cc2)cc1`, the “hERG current change (%, negative = inhibition) at 10uM” value falls from 14.7% to 12.9%.

First: CC(C)CNC(=O)/C=C/c1cccs1
Second: CC(C)c1nc(CNC(=O)c2cc(COc3c(F)cccc3F)on2)cs1
The “hERG current change (%, negative = inhibition) at 10uM” value of the first is higher: -4.42% for the first, -48.4% for the second.

Going from `COC(=O)c1[nH]c2ccc(C)cc2c1NS(=O)(=O)c1ccc(F)cc1` to `CCN1CCN(c2ccc(S(=O)(=O)N3CCCCC3)cc2NC(=O)COc2ccc(Cl)c(C)c2)CC1`, the “hERG current change (%, negative = inhibition) at 10uM” value falls from -5.62% to -34.5%.

Going from `CCc1nnc(SCc2cccc(F)c2)nc1CC` to `CCN(CC)C(=O)CSc1nnc(-c2cnccn2)n1-c1ccccc1`, the “hERG current change (%, negative = inhibition) at 10uM” value rises from -7.7% to 0.233%.

Compared with `C=CCN(c1ccc(C(N)=O)cc1)S(C)(=O)=O`, `CC(C)COc1ccc(C(=O)Nc2ccc(SC(F)F)cc2)cc1` is higher in “hERG current change (%, negative = inhibition) at 10uM” value: 10.4% for the first, 15.7% for the second.

First: O=C(Nc1cccc2ncccc12)c1ccc(OCc2ccccc2)cc1
Second: Cc1nc2ccccc2nc(C)c1=NOCC(=O)N(c1ccccc1)C(C)C
The “hERG current change (%, negative = inhibition) at 10uM” value of the first is higher: -12% for the first, -18.6% for the second.

Compared with `O=C1CC(c2cccc(Cl)c2)CC(O)=C1C=NC1CCCC1` (stereo not drawn), `O=C(Nc1ccc(F)c(Cl)c1)C1CCCN(C2=NS(=O)(=O)c3ccccc32)C1` (stereo not drawn) is lower in “hERG current change (%, negative = inhibition) at 10uM” value: -59.8% for the first, -63% for the second.

Compared with `O=C(Nc1ccn([C@H]2CC[C@@H](CO)O2)c(=O)n1)c1ccccc1`, `O=C(Nc1ccncc1)C1CC1c1ccccc1` (stereo not drawn) is higher in “hERG current change (%, negative = inhibition) at 10uM” value: -5.68% for the first, 2.98% for the second.

Compared with `COc1cccc(C(=O)Nn2cnnc2)c1OC`, `Cc1cc(NC(=O)C(C)N2C(=O)c3ccccc3S2(=O)=O)no1` (stereo not drawn) is lower in “hERG current change (%, negative = inhibition) at 10uM” value: 13.7% for the first, 5.14% for the second.

Going from `CN(C(=O)CNC(=O)c1ccc(Br)o1)C1CCCCC1` to `O=C(CN(C(=O)CCNC(=O)c1ccco1)c1ccccc1)NC1CCCC1`, the “hERG current change (%, negative = inhibition) at 10uM” value falls from 21.8% to 10.1%.

Compared with `CC(C)CN(C(=O)COC(=O)c1ccc2ccccc2n1)C1CCS(=O)(=O)C1` (stereo not drawn), `Cc1cnc(C(=O)OCC(=O)N2CCN(C(=O)c3ccco3)CC2)cn1` is lower in “hERG current change (%, negative = inhibition) at 10uM” value: 14.3% for the first, -8.85% for the second.

First: CC(=O)N1N=C(c2ccco2)CC1c1ccc(Br)cc1 (stereo not drawn)
Second: Cc1cc(C)cc(N2C(=O)CC(Sc3nnnn3-c3ccccc3)C2=O)c1 (stereo not drawn)
The “hERG current change (%, negative = inhibition) at 10uM” value of the first is lower: -13.4% for the first, -9.17% for the second.

First: CCCCCCC(c1c(C)n(C)n(-c2ccccc2)c1=O)c1c(C)n(C)n(-c2ccccc2)c1=O
Second: CN1CCN(CCC(C#N)(c2ccccc2)c2ccccc2)CC1.Cl
The “hERG current change (%, negative = inhibition) at 10uM” value of the first is higher: -40.4% for the first, -62.9% for the second.

Compared with `Cc1cc(C)c2oc(-c3ccc(C)c(NC(=S)NC(=O)c4cccs4)c3)nc2c1`, `Cc1cc(NC(=O)c2cc(C)on2)no1` is lower in “hERG current change (%, negative = inhibition) at 10uM” value: 8.58% for the first, -4.2% for the second.

For `O=[N+]([O-])c1cccc(CN2C[C@@]34C=C[C@@H](C[C@@H]3S2(=O)=O)O4)c1`, the “hERG current change (%, negative = inhibition) at 10uM” value was -12.6%.

Reference: publication PMC4336329 (PLoS ONE, 2015)
